Assay results from patent US20260137795A1, “EXATECAN IMMUNOCONJUGATES” (Immunome, Inc., priority 2023, published 2026).

Columns and labels:
Mouse ROR1 - His = biological target: T1, Mouse ROR1 - His (Mus musculus, UniProt Q9Z139); assay: Biochemical binding to purified protein measured by SPR
T1 construct: His
Description: (§1) An initial assessment of antibody developability was performed by AC-SINS to evaluate the potential for self-interaction (FIG. 19). […] TABLES 1-4 provide this antibody characterization data in comparison to the known ROR-1 binding antibody UC961 including tabled results for biochemical binding to purified proteins and measured by SPR (TABLES 1-4), cellular binding to ROR-1 positive cell lines JeKo-1 and MDA-MB-468 (EC50) (TABLE 5), and cellular internalization (% internalized) (TABLE 6).

[1] = biological target: T2, ROR-1 positive cell line JeKo-1 (Homo sapiens, UniProt Q01973); assay: Cell binding saturation assay (flow cytometry, MFI); conditions: FIG. 16
T2 construct: endogenous in cells; host or cells: JeKo-1
Excerpt: FIG. 16 illustrates a measurement of cell binding saturation data for the anti-ROR-1 antibodies generated by the methods described herein. […] Cells were washed, stained with secondary antibody and cell binding saturation was detected by flow cytometry and reported as mean fluorescent intensity (MFI).
A cell binding saturation assay was developed to evaluate how well the anti-ROR-1 antibodies developed in Example 16 bound to endogenously expressed extracellular ROR-1 protein on cell lines. […] Briefly, two ROR-1 positive cell lines. JeKo-1 and MDA-MB-468, were incubated in a titration series concentration of each antibody construct. Cells were then washed and subjected to secondary antibody staining and detection by flow cytometry. Mean fluorescence (MFI) was determined by analysis on cytometer software. […] (See FIG. 16).

Hu/Cy/Rh ROR1 - His = biological target: T3, Hu/Cy/Rh ROR1 - His (Homo sapiens, UniProt Q01973); assay: Biochemical binding to purified protein measured by SPR; design: species or system human/cyno/rhesus
T3 construct: His
Description: as §1

T1 sequence (Q9Z139 30-937): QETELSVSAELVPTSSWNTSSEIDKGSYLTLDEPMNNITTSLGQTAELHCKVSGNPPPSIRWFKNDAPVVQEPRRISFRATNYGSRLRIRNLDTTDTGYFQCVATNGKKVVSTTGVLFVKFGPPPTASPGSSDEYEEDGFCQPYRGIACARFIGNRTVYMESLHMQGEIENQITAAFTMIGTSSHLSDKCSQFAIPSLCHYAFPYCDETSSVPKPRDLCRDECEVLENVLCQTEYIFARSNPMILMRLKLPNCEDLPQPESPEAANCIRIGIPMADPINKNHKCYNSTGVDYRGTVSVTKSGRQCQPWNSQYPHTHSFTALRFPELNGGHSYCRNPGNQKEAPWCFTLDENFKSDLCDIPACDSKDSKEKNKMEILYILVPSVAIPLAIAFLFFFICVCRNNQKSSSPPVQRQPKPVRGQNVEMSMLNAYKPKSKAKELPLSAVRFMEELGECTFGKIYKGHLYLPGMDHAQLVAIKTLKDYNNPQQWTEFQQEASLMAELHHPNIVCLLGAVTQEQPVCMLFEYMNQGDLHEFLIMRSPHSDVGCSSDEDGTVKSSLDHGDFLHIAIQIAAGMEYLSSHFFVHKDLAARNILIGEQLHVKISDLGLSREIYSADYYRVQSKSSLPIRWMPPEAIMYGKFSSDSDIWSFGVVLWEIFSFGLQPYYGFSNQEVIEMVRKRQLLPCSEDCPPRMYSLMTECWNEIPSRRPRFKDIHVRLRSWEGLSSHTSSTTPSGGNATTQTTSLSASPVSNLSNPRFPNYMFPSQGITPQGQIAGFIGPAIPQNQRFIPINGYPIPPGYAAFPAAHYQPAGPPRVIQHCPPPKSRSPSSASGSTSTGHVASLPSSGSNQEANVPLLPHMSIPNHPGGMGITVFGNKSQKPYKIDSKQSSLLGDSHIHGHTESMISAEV

B1: ATX-P-885: anti-ROR-1 monoclonal antibody, IgG1; heavy chain SEQ ID NO: 21, kappa light chain SEQ ID NO: 28 (antibody)
heavy: QVQLQQWGAGLLKPSETLSLTCAVYGGSFSGYYWSWIRQPPGKGLEWIGEINHSGSTNYNPSLKSRVTISVDTSKNQFSLKLSSVTAADTAVYYCAREGVYEDYWGQGTLVTVSSASTKGPSVFPLAPSSKSTSGGTAALGCLVKDYFPEPVTVSWNSGALTSGVHTFPAVLQSSGLYSLSSVVTVPSSSLGTQTYICNVNHKPSNTKVDKRV[gap - human IgG1 Fc]
light: EIVLTQSPATLSLSPGERATLSCRASQSVSNYLAWYQQKPGQAPRLLIYDAYNRATGIPARFSGSGSGTDFTLTISSLEPEDFAVYYCQQRSNWPLTFGQGTRLEIKRTVAAPSVFIFPPSDEQLKSGTASVVCLLNNFYPREAKVQWKVDNALQSGNSQESVTEQDSKDSTYSLSSTLTLSKADYEKHKVYACEVTHQGLSSPVTKSFNRGEC
Molecule B1 has an Rmax (Mouse ROR1 - His) of 73.5 RU, a ka (Mouse ROR1 - His) of 29200 M⁻¹ s⁻¹ and a kd (Mouse ROR1 - His) of 0.00132 s⁻¹. The “cell binding saturation compared to UC961” value [1] was “comparable”, the “concentration needed to achieve binding saturation compared to UC961” value [1] was “improved” and the Rmax (Hu/Cy/Rh ROR1 - His) was 341.6 RU. It also gave a ka (Hu/Cy/Rh ROR1 - His) of 270000 M⁻¹ s⁻¹ and a kd (Hu/Cy/Rh ROR1 - His) of 0.00295 s⁻¹.
